The results in this text go back to article PMC10726135.

Some of the results follow. At the low end of the ranking, values are background and their order means little. The protein was read in a cell extract, so binding may be indirect.

For the experiment, the target named is T1, HNF4alpha8 (COS-7 nuclear extract) (UniProt P41235-5).
T1 sequence: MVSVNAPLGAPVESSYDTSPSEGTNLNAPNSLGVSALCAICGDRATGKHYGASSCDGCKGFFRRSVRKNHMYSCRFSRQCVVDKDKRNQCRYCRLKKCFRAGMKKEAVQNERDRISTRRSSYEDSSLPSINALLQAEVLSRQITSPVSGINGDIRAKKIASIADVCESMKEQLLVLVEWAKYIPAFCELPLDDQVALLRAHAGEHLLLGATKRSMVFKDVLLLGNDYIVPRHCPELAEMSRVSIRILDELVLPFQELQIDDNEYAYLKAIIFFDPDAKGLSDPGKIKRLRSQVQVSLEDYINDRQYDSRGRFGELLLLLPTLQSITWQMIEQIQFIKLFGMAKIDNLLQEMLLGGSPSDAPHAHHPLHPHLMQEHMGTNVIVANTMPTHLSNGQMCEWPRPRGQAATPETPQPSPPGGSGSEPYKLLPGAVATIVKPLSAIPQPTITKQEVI
The experiment in a line: protein-binding microarray. The conditions noted are these: COS-7 nuclear extract on double-stranded Agilent 4x180k PBM; binding buffer, salt, pH and temperature not given; high values mean tight binding; double strand, one strand shown; sequences stand for … in …GCCTAGGGAGATTAGAGTATCGGTCGA
As to TCATTATCTTCAGTCTAGAATCTGCAGCCC, the binding signal (log2 normalized intensity) worked out at 0.96.
The value for TCGCCGTGTGACTGAGGGCTGACATGTCTT was 0.63; that for AGCTCTAAACCACCCAATCCTGCAGCATTC was -1.42; that for ACATTTCAGTATGAATGCCTTGGCCTCTGC was 1.31.
To GGTTGGCACGCTTAGGGAACAAAGGTCAGT belongs 7.22; to TCTAGATGGGGTTGAGCAGACTAAAGGACT, -0.482; to TGGCTGGCGGCTAGTGTACAGGTGACCTTT, 7.84.
To GAACTGTAACCTCAAAGGAGGTCAGAACTG belongs 1.35; to GGACGAAGGTCACTAATTGGAAGCTCTTTC, 1.52.
In the case of TGCCTGGCATCTAACCTTCGTCCTTGCCCC, the binding signal (log2 normalized intensity) was 4.15.
Turning to AAGAAGGCAGACTCAAGATAGAGGGCTGCC, the binding signal (log2 normalized intensity) is -1.35.
To GTGTTCGCCCCTAGGACACGCAGTTGGAGA belongs -0.708; to AAGGTTATTTGCTCACCAGTGACCAATAAT, 0.582; to TGCCCTCTGGTGGCACACAGAGGACGTCAG, 0.732.
As to AAAAGCCCTAGTTTTTCTTCCGGTCACATA, the binding signal (log2 normalized intensity) was found to be 1.45.
For CAAGCCTAGTTTTGATTATCACTACTCCTC, the binding signal (log2 normalized intensity) is -0.964.
The value for CACAGCTCGACCTTTGACCTTCGGCTTCCC was 9.06; that for AACAAAAGCAGAGGAGTGGCCATGATGCCA was -0.86.
Take GGGCAAAGTCAGGTACTGGTAGCCTGGGCC: the binding signal (log2 normalized intensity) was -1.11.
To GCCCAAAGGTCACCTCTTCAGATAGCCTTT belongs 3.23.
With GGGCAGGTGAGAGGGCTCTGTCTGCTGGGC, the binding signal (log2 normalized intensity) was -1.38.
The value for GTATACTATTTGCTAATGTCCTTTGGAGTG was 2.41.
Regarding CAGGCCATCACACTCCTACCCATTCTTCAG, the binding signal (log2 normalized intensity) was -1.19.
The value for CTCTCAGGTCAAAGTTTGCCTTGACCTCTA was 5.11.
To CTGTTGGTGACTGACCCTGATCCCTCCCTG belongs 3.61.
The value for GATTCCCCAATGCAGTACTATGCAATAACC was 0.931; that for GGAATATTGCCCCCTAATGGTATTTATTTT was 3.1.
For the sequence ACCTTTTGGACCACAGAGTGACCTGGTATT, the binding signal (log2 normalized intensity) stood at 3.05.
On to GACAAAGTTCTGTCCTTTGTCCCCCACCTG, for which the binding signal (log2 normalized intensity) was 5.15.
On to CAAGCGTCAGTCATACAGAGCTGTCACGCA, for which the binding signal (log2 normalized intensity) is -1.32.
To AGGGAGGTAAAAGTCCAACAGGGTTAAAAG belongs 2.44; to AGCCACCGCGCCCCGCCCCCAGTGCACCTT, 5.01; to CTTCTGTTCAGGAGTTGTCTGTCCAGTTCA, 1.62.
The value for GGGAGATAAGGTGGAAAGACAAGTTGAAGC was -1.34; that for GAAGGAGAGAGAGGGAGAGTGGCCTTTGGA was 4.12.
To GCCTGCTTTCCACTCCCATTACTTCTGTTT belongs 1.48; to CAGGCAGACTGGCTCCGCTGCTGCAGAGCA, -1.22; to GCCACGCACACCTGGATCTTCCAGGCCTCC, -1.34.
Regarding CTGAGGTATTTTTGCAATCCTCCACTCTCC, the binding signal (log2 normalized intensity) was determined as 0.0425.
For GAGTACTGTCTCTTATCAGCCATCTCCCCA, the binding signal (log2 normalized intensity) worked out at 3.14.
The value for GGTGTACAAGGAGTCTCCACTATGACCTGT was 3.43.
The value for AGGGAATGAAGCTAAAAGAAGTCCAAGGAC was -0.989; that for GTTGCTTCCACCTATGAGTCTGTAAAGTCA was 0.697; that for CCCAAACTTAAAAGAAGCTACTAGCAAATC was -1.29.
As for GCAATTCCCCTGGGCCCACGGCTCTGCACA, the binding signal (log2 normalized intensity) is -1.25.
The value for CTTTACATTTATTAGAACCTTATGTGAGTA was 1.24; that for GCAGTAACGGCAGGGTTGTGCAGGACTGCG was -0.641.
Regarding ATTTTATGCTTACTGCCTCAGGGAGGAGTT, the binding signal (log2 normalized intensity) was -1.26.
As for GGTTAAAATTTATCTATTGGGTACAATGTT, the binding signal (log2 normalized intensity) was determined as 2.37.
As for TCTTATGTCCCTCCTGACCTTTGGACTTGA, the binding signal (log2 normalized intensity) is 10.6.
As to TAAAGCGGACGGGCTGCGGAGGCGACTGCA, the binding signal (log2 normalized intensity) was -1.31.
With CAGGGACCTTTGTTCCTTTACACATGAGAG, the binding signal (log2 normalized intensity) was 2.87.
On to AAATCTTAAGGAGGAGTGCTAGAGAAAGGA, for which the binding signal (log2 normalized intensity) is -1.36.
Consider CCAAACAATGCAAGAGAGGTCACAACAGAA, for which the binding signal (log2 normalized intensity) is -1.31.
For the sequence CCCCACCATTGTTATCTGATCAAATTCCAC, the binding signal (log2 normalized intensity) stood at 3.36.
The value for CAAAGTCCTCCAACTGCCACGGTAAATATT was 1.05.
As for CAGGGATCAAATCCTAACATGCTGCAGGCA, the binding signal (log2 normalized intensity) was -1.08.
To CCAAATTCCAGCTGAAGTTCCCAGCCCTTC belongs -0.535.
Consider TCTCTCTCTCTTTCTTCCCCCACTCCAAGT, for which the binding signal (log2 normalized intensity) worked out at 4.77.
Take GGCGACCTTCGCTCGGCTCGCTCTCCCTGC: the binding signal (log2 normalized intensity) was 0.281.
To CAGGGGTCATCAGATAGATGGTCAGTGAAC belongs 1.88; to GTAAGGTCGACCTTTAAACGTTTGCTGGAT, 5.1; to TTAGAGAGAGAAATTGCTTAAGTGCTTGTC, -0.724.
Take CCAGTGGTCCCTGGAGATAATAGTGGCTGA: the binding signal (log2 normalized intensity) was -1.37.
The value for CTCCTAAGCAGGACAGCAGAGTGGAGGCCA was -1.07.
To AGGTCACTTTACAGATAAAGAAACCATAGA belongs -1.43; to CTGCCCTTCTGACCTCCCAGGGATACTGTG, 2.99.
The value for ACATTCTTCCATATAACCCTTGAACCTTCT was 5.82; that for TAGTGCATAGTGGGTTTCGGTGTCATCTAG was 1.01; that for AACAGGCAGAAGAATGGATGAGCTAATCAG was -1.3.
Regarding CTAAGCACCTCTGCTTATCTCAACTGATTT, the binding signal (log2 normalized intensity) is -0.839.
For the sequence AGCTTTTTGTTTGTGTAAGTGTGGGTTTAA, the binding signal (log2 normalized intensity) was 2.13.
The value for GCAGTTTGTCAAGTGCCCGGATAAACTTCC was -0.141.
